{
  "source": "PubChem BioAssay AID686978",
  "about": "(National Center for Advancing Translational Sciences (NCATS), 2013)",
  "note": "The whole screen tested about 420,000 compounds, of which about 64,000 (15%) were called active. The shares of active, inactive and inconclusive entries below differ from those in the screen. Calls come from the whole dose curve; as a rule, active = well fitted inhibition curve with a large enough effect; inconclusive = small, poorly fitted or top-dose-only effect; inactive = flat fitted curve, though single readings scatter. Potencies of inconclusive entries are left out as doubtful fits. Potency is the fitted concentration of half-maximal effect; tags give direction and shape of the fitted curve.",
  "data": [
    {"experiment": "qHTS for Inhibitors of human tyrosyl-DNA phosphodiesterase 1 (TDP1): qHTS in cells in absence of CPT; note: nearly all actives have a fitted effect of over 55% in size", "details": "DT40 Tdp1-/- hTDP1 cells, no CPT, ATP luminescence, 48 h; series mostly up to 46.2 µM", "outline": "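No-CPT arm: Tdp1-/-;hTDP1 DT40 cells (400/well) plus compounds, incubated ≥48 hr at 37 °C. Readout CellTiter-Glo luminescence.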", "values": [
      {"smiles": "CC(C)c1ccc(S(=O)(=O)N2CCN(Cc3cccc(F)c3)CC2)cc1", "Potency": "inconclusive [inhibitor, single point]"},
      {"smiles": "CCN(CC)CCNC(=O)c1ccc(NC(=O)/C=C/c2cc(OC)c(OC)c(OC)c2)cc1", "Potency": "inconclusive [inhibitor, single point]"},
      {"smiles": "CCn1ncc(N(C)N)c(Cl)c1=O", "Potency": "inactive"},
      {"smiles": "COc1ccc(N(CC(=O)Nc2ccc3c(c2)OCO3)S(=O)(=O)c2ccc(F)cc2)cc1", "Potency": "inconclusive [inhibitor, single point]"},
      {"smiles": "CCCCOc1ccccc1C1CC(=O)Nc2ccc3ccccc3c21", "note": "(stereo not given)", "Potency": "active: 6.51 µM"},
      {"smiles": "Cc1ccc(NC(=O)Cc2nnc(SCC(=O)NC3=NCCS3)n2C)cc1", "Potency": "inconclusive [inhibitor, partial curve]"},
      {"smiles": "O=C(Nc1ccccn1)c1ccc(-c2ccccc2)cc1", "Potency": "inconclusive [inhibitor, single point]"},
      {"smiles": "S=c1[nH]nc(-c2ccncc2)n1/N=C/C=C/c1ccccc1", "Potency": "inconclusive [inhibitor, single point]"},
      {"smiles": "Cc1ccc(NC(=O)NCCN2CCCCC2)cc1", "Potency": "inactive"},
      {"smiles": "CCCc1[nH]n(-c2ccc([N+](=O)[O-])cc2)c(=O)c1C(C)=NCc1ccncc1", "Potency": "inconclusive [inhibitor, partial curve, poor fit]"},
      {"smiles": "Cc1nc(N2CCOCC2)nc(N2CCCC2)c1[N+](=O)[O-]", "Potency": "inconclusive [inhibitor, partial curve, poor fit]"},
      {"smiles": "O=C(NNc1cc(Cl)cc(Cl)c1)c1cccs1", "Potency": "active: 18.4 µM"},
      {"smiles": "CCCCn1c(NC(=O)c2ccccc2)nc2ccccc21", "Potency": "inconclusive [inhibitor, single point]"},
      {"smiles": "COc1ccc(NC(=O)CSc2nnc3ccc(-c4ccccn4)nn23)c(OC)c1", "Potency": "inconclusive [inhibitor, single point]"},
      {"smiles": "O=C(Nc1ccc2c(c1)oc1ccccc12)c1ccc2c(c1)OCO2", "Potency": "inconclusive [inhibitor, single point]"},
      {"smiles": "CCCCCCn1c(SCC(=O)NC2CCS(=O)(=O)C2)nc2ccccc2c1=O", "note": "(stereo not given)", "Potency": "inactive"},
      {"smiles": "CCOC(=O)C1CCN(C(=S)Nc2cccc(C)c2C)CC1", "Potency": "inactive"},
      {"smiles": "Cc1sc(NC(=O)c2ccc(Br)s2)c(C(N)=O)c1C", "Potency": "inconclusive [inhibitor, partial curve, poor fit]"},
      {"smiles": "Cc1cccc(C)c1N1CCN(C(=O)N2CCCCC2)CC1", "Potency": "inactive"},
      {"smiles": "Cc1cccc(Cn2c(SCCN3CCOCC3)nc3c2c(=O)n(C)c(=O)n3C)c1", "Potency": "inconclusive [inhibitor, single point]"},
      {"smiles": "CC1(C(=O)NS(=O)(=O)c2ccc(Cl)cc2)CCN1C(=O)C1(c2ccc(Cl)cc2)CCC1", "note": "(stereo not given)", "Potency": "inconclusive [inhibitor, single point]"},
      {"smiles": "CCN(C(=O)CN1c2ccccc2CC1C)c1c(N)n(Cc2ccccc2)c(=O)[nH]c1=O", "note": "(stereo not given)", "Potency": "inactive"},
      {"smiles": "COc1cc(OC)cc(C(=O)NNC(=S)Nc2ccc(S(N)(=O)=O)cc2)c1", "Potency": "inactive"},
      {"smiles": "COC(=O)CC1COc2ccccc2N1C(=O)c1ccc(OC)cc1", "note": "(stereo not given)", "Potency": "inconclusive [inhibitor, single point]"},
      {"smiles": "CCCCN(CC)C(=O)CSc1nc2n[nH]c(C)c2c(=N)n1-c1ccc(CC)cc1", "Potency": "active: 5.17 µM"},
      {"smiles": "CCOC(=O)C1CCN(C(=O)c2cc3sc(C)cc3n2C)CC1", "Potency": "inactive"},
      {"smiles": "COC(=O)CSc1nc(-c2ccccc2)c2c(c1C#N)CCCC2", "Potency": "inconclusive [inhibitor, single point]"},
      {"smiles": "CCOc1ccc(-c2cccc(NS(=O)(=O)c3ccc(C)s3)c2)nn1", "Potency": "inconclusive [inhibitor, single point]"},
      {"smiles": "Cc1noc(C(=O)NCc2ccccc2)c1Cl", "Potency": "inactive"},
      {"smiles": "O=[N+]([O-])c1cc(-c2cnc3ccccc3n2)ccc1Oc1ccc(F)cc1", "Potency": "inconclusive [inhibitor, partial curve, poor fit]"},
      {"smiles": "COc1ccc(CNC(=O)c2csc3c2CCCC3)cc1", "Potency": "inconclusive [inhibitor, single point]"},
      {"smiles": "C[C@H](O)[C@@H]1C(=O)N2CCc3ccc(-c4ccccc4)cc3[C@@H]2C[C@@H]1N(C)C(=S)Nc1ccc(F)cc1", "Potency": "inconclusive [inhibitor, single point]"},
      {"smiles": "Cc1ccc2nc(/C=C/c3cccc(F)c3)ccc2c1", "Potency": "inconclusive [inhibitor, single point]"},
      {"smiles": "Cc1c(C)c([N+](=O)[O-])c(C)c(C)c1N", "Potency": "inconclusive [inhibitor, single point]"},
      {"smiles": "CCN(CC)C(=S)Nc1cc(C(=O)OC)ccc1C(=O)OC", "Potency": "inactive"},
      {"smiles": "COc1ccccc1-c1ccc([C@@H]2C[C@H]3[C@H](CON3C)CN2C(=O)c2ccco2)cc1", "Potency": "inconclusive [inhibitor, single point]"},
      {"smiles": "Cc1cccc(C)c1NC(=O)C(c1cccs1)N(Cc1ccco1)C(=O)Cn1nnc2ccccc21", "note": "(stereo not given)", "Potency": "active: 10.3 µM"},
      {"smiles": "CCCN(CC(=O)Nc1ccccc1OC)C(=O)CSC(=S)N1CCCC1", "Potency": "inactive"},
      {"smiles": "COCCCn1c(=O)c2sccc2n2c(CCCC(=O)NCc3cccc(OC)c3)nnc12", "Potency": "inconclusive [inhibitor, single point]"},
      {"smiles": "Cc1ccc(/C=C/C(=O)Nc2ccncc2)o1", "Potency": "inconclusive [inhibitor, partial curve]"},
      {"smiles": "O=C(NCc1ccccc1CN1CCCC1)c1ccc(Cl)c(S(=O)(=O)N2CCCC2)c1", "Potency": "inconclusive [inhibitor, single point]"},
      {"smiles": "COc1ccc(NC(=O)CSc2ncc3c(n2)-c2ccccc2N(Cc2ccc(C)cc2)S3(=O)=O)cc1Cl", "Potency": "inconclusive [inhibitor, single point]"},
      {"smiles": "CCCC(=O)Nc1c(-c2cccc(OC)c2)c(=O)c2ccccc2n1C", "Potency": "inactive"},
      {"smiles": "CCOC(=O)CNC(=O)CSc1nc(-c2ccccc2)ns1", "Potency": "inconclusive [inhibitor, partial curve]"},
      {"smiles": "COc1ccc(CC(=O)Nc2cccc(SC)c2)cc1", "Potency": "inactive"}
    ]}
  ]
}
